{
  "source": "ChEMBL document CHEMBL4888484",
  "about": "“Replenishing the malaria drug discovery pipeline: Screening and hit evaluation of the MMV Hit Generation Library 1 (HGL1) against asexual blood stage Plasmodium falciparum ,using a nano luciferase reporter read-out” (2022)",
  "note": "In all, about 150,000 compounds went through this assay and about 540 (0.36%) showed an effect of 50% or more. Some of the results follow.",
  "data": [
    {"test_system": "Plasmodium falciparum", "experiment": "Primary screen in NF54 nanoGlo assay, in single point, at 2uM, 72h; a lower Z score goes with more inhibition", "type": "functional, Erythrocyte", "conditions": "timepoint 72 hour", "units": {"% Inhibition": "%"}, "values": [
      {"smiles": "Cc1cc(C(=O)NCc2nnc3ccccn23)c(C)n1-c1ccc2c(c1)OCCO2", "% Inhibition": -14, "Z score": 2.77},
      {"smiles": "CC[C@](C)(NC(=O)c1ncn(C(C)(C)C)n1)c1nc(C)cs1", "% Inhibition": -12, "Z score": 1.59},
      {"smiles": "O=C(NCc1ccco1)Nc1nccs1", "% Inhibition": 1, "Z score": -0.2},
      {"smiles": "C=CCNC(=O)NC(=O)CN(C(C)C)C1CCC1", "% Inhibition": -18, "Z score": 2.43},
      {"smiles": "O=C(CCc1ccccc1Cl)Nc1cccc(S(=O)(=O)N2CCOCC2)c1", "% Inhibition": -1, "Z score": 0.15},
      {"smiles": "COc1ccc(CNC(=O)[C@@H](C)C2CCOCC2)c(C)c1", "% Inhibition": -3, "Z score": 0.5},
      {"smiles": "CC(CCC1CCCC1)NC(=O)NC(C)c1nc[nH]n1", "note": "(stereo unspecified)", "% Inhibition": -2, "Z score": 0.3},
      {"smiles": "O=S1(=O)C[C@H]2NCCN(c3ccnc(N4CCC5(CCCC5)C4)n3)[C@H]2C1", "% Inhibition": -21, "Z score": 1.89},
      {"smiles": "Cc1cccnc1NC(=O)[C@H]1CCCN(C(=O)c2c(O)cc(F)cc2F)C1", "% Inhibition": 2, "Z score": -0.19},
      {"smiles": "CCOc1ccc(CNC(=O)C2(C#N)CCCCC2)cc1Cl", "% Inhibition": -8, "Z score": 1.21},
      {"smiles": "C=CCNC(=O)CCN(Cc1c(C)nn(C)c1C)C(C)C", "% Inhibition": -8, "Z score": 1.01},
      {"smiles": "CC[C@H]1CCCCN1C(=O)c1ccc(-n2nc(-c3nnc(C)o3)c(C)c2-c2ccc(F)cc2)cc1", "% Inhibition": 6, "Z score": -0.8},
      {"smiles": "Cc1nn(-c2ccc(C(F)(F)F)cc2)c(C)c1[C@@H]1C=C[C@@H](NC(=O)Nc2ccccc2)C1", "% Inhibition": 28, "Z score": -3.19},
      {"smiles": "COCC(NC(=O)N1CCOC(c2cnn(C)c2)C1)c1ccc(C)o1", "note": "(stereo unspecified)", "% Inhibition": -1, "Z score": 0.1},
      {"smiles": "NC(=O)[C@@H]1CCCN1C(=O)NC1CCN(S(=O)(=O)c2ccccc2)CC1", "% Inhibition": -9, "Z score": 1.63},
      {"smiles": "COCCCNC(=O)[C@]1(C)Cn2nc(-c3ccccc3)cc2C(=O)N1c1ccccc1C", "% Inhibition": -3, "Z score": 0.54},
      {"smiles": "COc1ccc(NC(=O)c2cc(-c3ccc(F)cc3)ns2)cc1OC", "% Inhibition": 10, "Z score": -1.56},
      {"smiles": "O=C(NCc1ccccn1)[C@H]1CN(S(=O)(=O)c2cccnc2)CC12CCCCC2", "% Inhibition": 38, "Z score": -1.27},
      {"smiles": "COc1ccccc1CN(Cc1nc(C(=O)NCCN2CCOCC2)co1)[C@@H](C)c1ccccc1", "% Inhibition": -8, "Z score": 1.15},
      {"smiles": "CN([C@H]1CCCN(S(=O)(=O)C2(C)CC2)CC1)S(=O)(=O)C1(C)CC1", "% Inhibition": -17, "Z score": 1.76},
      {"smiles": "Cc1ccccc1N1CC[C@@H](C(=O)NCc2cccc(C(F)(F)F)c2)C1=O", "% Inhibition": -15, "Z score": 1.5},
      {"smiles": "O=c1ccc(-c2ccccc2)nn1CC#Cc1ccc(F)cc1", "% Inhibition": 5, "Z score": -0.94},
      {"smiles": "COc1cc2c(cc1CN1C[C@@H]3NC(=O)CN(C)C(=O)c4ccc(C)c(c4)Oc4cccc(c4)CO[C@H]3C1)OCCCO2", "% Inhibition": -4, "Z score": 0.81},
      {"smiles": "COc1ccccc1NC(=O)N[C@H](C)C(=O)OC(C)C", "% Inhibition": -4, "Z score": 0.39},
      {"smiles": "COc1ccc(-c2nc(-c3ccc4ncn(C(C)C)c4c3)no2)c(OC)c1", "% Inhibition": -14, "Z score": 1.49},
      {"smiles": "CN(CCn1ccnc1)C(=O)C1CC=CC1", "% Inhibition": -3, "Z score": 0.6},
      {"smiles": "O=C(C1CC1c1ccco1)N1CCCC(COc2ccccc2)C1", "note": "(stereo unspecified)", "% Inhibition": -7, "Z score": 0.58},
      {"smiles": "CCCCCOCC(=O)NC[C@]1(CO)COCCN1", "% Inhibition": -7, "Z score": 1.36},
      {"smiles": "C[C@@H](O)C(=O)N1CCC2(CC1)CC(=O)N(C/C=C/c1ccccc1)C2", "% Inhibition": -7, "Z score": 0.63},
      {"smiles": "CS(=O)(=O)CC1(CC(=O)NC2CCCCCCC2)CC1", "% Inhibition": -7, "Z score": 0.92},
      {"smiles": "COc1ccc2c(c1)[C@H]1OCCC[C@H]1C(c1cc(Cl)c(OC)c(OC)c1)N2", "note": "(stereo partly specified)", "% Inhibition": -7, "Z score": 1.06},
      {"smiles": "CCOC(=O)[C@H](CN(C)C)Oc1ccc(Cl)cc1", "% Inhibition": -13, "Z score": 2.58},
      {"smiles": "Cc1n[nH]c(CN2CCCC[C@H]2C(=O)Nc2cccc(-c3nnc(C)s3)c2)n1", "% Inhibition": -13, "Z score": 1.85},
      {"smiles": "CN1CCN(Cc2cnc3ncccn23)c2ccccc21", "% Inhibition": 13, "Z score": -1.8},
      {"smiles": "COc1ccccc1CCC(=O)N1CC[C@@H](NC(=O)c2cccnc2)[C@@H](CO)C1", "% Inhibition": -7, "Z score": 0.8},
      {"smiles": "CCn1cnnc1CNS(=O)(=O)C[C@H](Cc1ccccc1)OC", "% Inhibition": -2, "Z score": 0.29},
      {"smiles": "CNc1nc(N[C@@H]2[C@@H]3CCO[C@@H]3[C@H]2NC(C)=O)ncc1F", "% Inhibition": -1, "Z score": 0.12},
      {"smiles": "CC(C)c1oncc1NC(=O)CN1CCOCC1", "% Inhibition": -5, "Z score": 0.67},
      {"smiles": "Cc1cc(NC(=O)Cn2ccnn2)n([C@@H](C)C2CC2)n1", "% Inhibition": -11, "Z score": 1.49},
      {"smiles": "CN(CC1(O)CCCCCC1)C(=O)NC(CC1CCOC1)c1ccccc1", "note": "(stereo unspecified)", "% Inhibition": -8, "Z score": 1.18},
      {"smiles": "CC(=O)N[C@H]1CCN(S(=O)(=O)c2sccc2Cl)C1", "% Inhibition": 0, "Z score": -0.08},
      {"smiles": "O=C1C[C@@H](C(=O)Nc2ccc(OC(F)(F)F)cc2)n2c(nnc2-c2ccco2)N1", "% Inhibition": -9, "Z score": 1.72},
      {"smiles": "Cc1cc(CC(=O)N2CCC(c3ncncc3C)CC2)on1", "% Inhibition": -21, "Z score": 4.14},
      {"smiles": "O=C(NC1CCCCCCC1)c1ccc2ccccc2n1", "% Inhibition": -2, "Z score": 0.26},
      {"smiles": "C[C@H]1CCCN(CC2=NS(=O)(=O)c3ccccc3N2)C1", "% Inhibition": 1, "Z score": -0.21},
      {"smiles": "O=C(c1cc(O)ncn1)N1CC[C@H](c2nccc(C(F)(F)F)n2)C1", "% Inhibition": -12, "Z score": 1.31},
      {"smiles": "Cc1nc(C)n(C2CN(C(=O)COc3ccc(Cl)cc3C)C2)n1", "% Inhibition": 2, "Z score": -0.33},
      {"smiles": "CC(C)c1cncnc1N[C@H]1CN(CCCO)C[C@@H]1C1CC1", "% Inhibition": 4, "Z score": -0.64},
      {"smiles": "COCc1noc(CN(C)Cc2c[nH]nc2C)n1", "% Inhibition": -7, "Z score": 1.21},
      {"smiles": "CCN(CC)S(=O)(=O)c1ccc(N2CCOCC2)c(NC(=O)c2ccc(O)nc2)c1", "% Inhibition": -7, "Z score": 1.2},
      {"smiles": "COCCNc1ccc(-c2nc(-c3ccc(C)cc3)no2)nn1", "% Inhibition": -9, "Z score": 1.02},
      {"smiles": "Cc1ccccc1NS(=O)(=O)c1ccc(-c2ccc(O)nn2)o1", "% Inhibition": 8, "Z score": -1.06},
      {"smiles": "O=C(CN1C(=O)COc2ccc(Cl)cc21)N1CCN(c2ccc(F)cc2)CC1", "% Inhibition": -3, "Z score": 0.5}
    ]}
  ]
}
